Paper PMC11516053, “Genomic Amplification of TBC1D31 Promotes Hepatocellular Carcinoma Through Reducing the Rab22A‐Mediated Endolysosomal Trafficking and Degradation of EGFR” (Advanced Science, 2024)
No constants are given. Whether binding was seen depends on the method and setting. Binding seen in cells or lysates may run through a third protein. Some results given as binding are weak or reduced against the parent protein; the word gives no strength. Tags and fused reporters may be left off the sequences shown.

The chains behind the UniProt entries cited, without tags or fusion partners.
UniProt P20339: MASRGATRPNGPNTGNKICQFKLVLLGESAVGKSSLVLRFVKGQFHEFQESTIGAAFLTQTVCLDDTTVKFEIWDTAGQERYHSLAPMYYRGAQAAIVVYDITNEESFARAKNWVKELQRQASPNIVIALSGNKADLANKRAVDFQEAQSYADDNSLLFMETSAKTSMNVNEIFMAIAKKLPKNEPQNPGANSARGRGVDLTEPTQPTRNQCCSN
UniProt P51149: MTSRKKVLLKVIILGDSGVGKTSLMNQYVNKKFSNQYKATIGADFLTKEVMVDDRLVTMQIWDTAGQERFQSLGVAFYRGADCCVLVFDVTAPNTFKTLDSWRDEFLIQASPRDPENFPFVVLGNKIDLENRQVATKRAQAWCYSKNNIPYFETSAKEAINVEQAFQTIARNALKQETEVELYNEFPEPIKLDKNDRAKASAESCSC
UniProt P62491: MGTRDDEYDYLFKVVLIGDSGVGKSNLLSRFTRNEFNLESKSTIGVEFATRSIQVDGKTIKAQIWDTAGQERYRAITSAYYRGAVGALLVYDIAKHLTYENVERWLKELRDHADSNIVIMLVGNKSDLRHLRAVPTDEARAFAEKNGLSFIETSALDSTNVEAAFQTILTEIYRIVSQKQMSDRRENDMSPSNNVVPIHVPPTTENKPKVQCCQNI
UniProt Q9UL25: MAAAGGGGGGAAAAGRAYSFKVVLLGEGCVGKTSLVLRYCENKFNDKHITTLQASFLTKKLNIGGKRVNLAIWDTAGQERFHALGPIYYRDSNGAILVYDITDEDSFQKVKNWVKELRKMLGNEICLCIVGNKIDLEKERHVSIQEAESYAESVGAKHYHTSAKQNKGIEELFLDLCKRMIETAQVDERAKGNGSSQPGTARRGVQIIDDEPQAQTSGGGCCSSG

T1: Flag-TBC1D31 (human) (UniProt Q96DN5)
T1 sequence: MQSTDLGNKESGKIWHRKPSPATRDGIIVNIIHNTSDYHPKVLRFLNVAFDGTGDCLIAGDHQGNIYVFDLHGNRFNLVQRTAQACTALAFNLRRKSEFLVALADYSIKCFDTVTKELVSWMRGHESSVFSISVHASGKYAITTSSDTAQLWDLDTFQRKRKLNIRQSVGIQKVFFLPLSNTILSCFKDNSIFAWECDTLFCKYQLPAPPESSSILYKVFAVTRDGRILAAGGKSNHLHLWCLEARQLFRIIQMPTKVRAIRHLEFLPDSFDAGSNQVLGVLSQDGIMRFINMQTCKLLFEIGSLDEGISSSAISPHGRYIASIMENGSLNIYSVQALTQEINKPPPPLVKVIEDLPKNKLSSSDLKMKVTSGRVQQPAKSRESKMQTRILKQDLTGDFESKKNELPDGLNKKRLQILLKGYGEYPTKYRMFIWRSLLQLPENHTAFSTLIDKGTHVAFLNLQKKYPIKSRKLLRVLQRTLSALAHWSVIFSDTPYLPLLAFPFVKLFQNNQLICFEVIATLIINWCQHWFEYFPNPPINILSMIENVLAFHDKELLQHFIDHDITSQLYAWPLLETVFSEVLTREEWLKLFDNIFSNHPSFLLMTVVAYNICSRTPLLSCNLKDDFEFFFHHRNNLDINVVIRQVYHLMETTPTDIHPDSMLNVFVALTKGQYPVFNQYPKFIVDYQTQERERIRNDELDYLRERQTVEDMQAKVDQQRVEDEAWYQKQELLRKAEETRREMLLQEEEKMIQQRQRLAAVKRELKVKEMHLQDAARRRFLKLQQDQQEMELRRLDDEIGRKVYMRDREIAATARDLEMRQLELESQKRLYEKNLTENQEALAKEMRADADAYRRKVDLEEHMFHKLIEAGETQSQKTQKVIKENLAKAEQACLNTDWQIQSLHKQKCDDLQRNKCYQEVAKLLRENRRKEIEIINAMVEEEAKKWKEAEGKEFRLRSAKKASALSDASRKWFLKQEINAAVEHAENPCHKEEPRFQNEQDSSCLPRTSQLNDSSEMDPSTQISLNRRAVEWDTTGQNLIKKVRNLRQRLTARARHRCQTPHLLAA

T2: Flag-TBC1D31 (in HepG2 cells) (human) (UniProt Q96DN5)
T2 sequence: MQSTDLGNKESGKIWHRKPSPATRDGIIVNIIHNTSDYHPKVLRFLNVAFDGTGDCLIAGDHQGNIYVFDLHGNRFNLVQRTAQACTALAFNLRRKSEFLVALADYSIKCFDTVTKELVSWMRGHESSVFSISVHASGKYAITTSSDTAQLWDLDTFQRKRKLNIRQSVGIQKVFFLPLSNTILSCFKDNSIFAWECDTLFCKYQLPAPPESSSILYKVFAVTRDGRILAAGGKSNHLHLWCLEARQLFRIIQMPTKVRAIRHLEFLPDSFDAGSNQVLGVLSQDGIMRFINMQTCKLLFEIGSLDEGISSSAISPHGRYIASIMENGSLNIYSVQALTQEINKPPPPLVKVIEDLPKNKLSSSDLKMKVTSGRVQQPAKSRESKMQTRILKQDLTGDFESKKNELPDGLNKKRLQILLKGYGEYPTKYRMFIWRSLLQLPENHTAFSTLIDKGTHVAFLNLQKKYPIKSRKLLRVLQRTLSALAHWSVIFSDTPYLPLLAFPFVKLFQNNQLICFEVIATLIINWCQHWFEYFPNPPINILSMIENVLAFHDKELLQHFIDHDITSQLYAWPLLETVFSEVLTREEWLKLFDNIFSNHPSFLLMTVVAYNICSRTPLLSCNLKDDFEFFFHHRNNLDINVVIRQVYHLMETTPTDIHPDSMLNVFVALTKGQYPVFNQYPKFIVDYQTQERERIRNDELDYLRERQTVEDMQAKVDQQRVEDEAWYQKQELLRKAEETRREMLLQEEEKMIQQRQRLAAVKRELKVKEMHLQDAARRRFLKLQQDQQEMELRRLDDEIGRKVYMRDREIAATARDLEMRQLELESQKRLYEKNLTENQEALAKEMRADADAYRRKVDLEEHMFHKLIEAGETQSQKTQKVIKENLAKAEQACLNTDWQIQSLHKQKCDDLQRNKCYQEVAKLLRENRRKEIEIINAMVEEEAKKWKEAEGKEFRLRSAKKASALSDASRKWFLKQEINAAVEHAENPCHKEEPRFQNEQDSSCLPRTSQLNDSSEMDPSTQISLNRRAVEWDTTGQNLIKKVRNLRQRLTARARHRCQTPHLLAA

B1: Myc-Rab22A (protein, UniProt Q9UL26 1-194)
chain: MALRELKVCLLGDTGVGKSSIVWRFVEDSFDPNINPTIGASFMTKTVQYQNELHKFLIWDTAGQERFRALAPMYYRGSAAAIIVYDITKEETFSTLKNWVKELRQHGPPNIVVAIAGNKCDLIDVREVMERDAKDYADSIHAIFVETSAKNAININELFIEISRRIPSTDANLPSGGKGFKLRRQPSEPKRSCC
B2: endogenous Rab22A (protein, UniProt Q9UL26 1-194)
chain: MALRELKVCLLGDTGVGKSSIVWRFVEDSFDPNINPTIGASFMTKTVQYQNELHKFLIWDTAGQERFRALAPMYYRGSAAAIIVYDITKEETFSTLKNWVKELRQHGPPNIVVAIAGNKCDLIDVREVMERDAKDYADSIHAIFVETSAKNAININELFIEISRRIPSTDANLPSGGKGFKLRRQPSEPKRSCC

Biological target: T1, Flag-TBC1D31 (human)
Assay: co-IP; Flag-TBC1D31 and Myc-tagged Rabs co-expressed in HEK293T (text: HEK293) cells; NETN lysis buffer (100 mM NaCl, 1 mM EDTA, Tris pH 8.0, 0.5% NP-40), agarose A/G beads, 4 °C

Which binding does the source give for Myc-Rab5A (from UniProt P20339 1-215) here?
The binding was “no binding”.

Which binding does the source give for Myc-Rab7A (from UniProt P51149 1-207) here?
The binding was “no binding”.

With Myc-Rab11A (from UniProt P62491 1-216) as the molecule, how does the binding read?
Its binding is “no binding”.

Which binding does the source give for Myc-Rab21A (from UniProt Q9UL25 1-225) here?
Its binding is “no binding”.

How did the binding turn out when B1 was run?
Its binding is “binds”.

Biological target: T2, Flag-TBC1D31 (in HepG2 cells) (human)
Assay: co-IP; HepG2 cells with Flag-TBC1D31 and endogenous Rab22A; IP and IB with anti-mouse Flag and anti-rabbit Rab22A; rabbit or mouse IgG as negative controls; NETN lysis buffer

How did the binding turn out when B2 was run?
The binding was “binds”.
